No constants are given. Whether binding was seen depends on the method and setting. Binding seen in cells or lysates may run through a third protein. Some entries that bind do so weakly or less than the wild type.

The chains behind the UniProt entries cited, without tags or fusion partners. Where a name states a change or a piece, a line headed by the entry shows the natural chain unless it says otherwise. Residues count along the entry.
UniProt Q9UNE7: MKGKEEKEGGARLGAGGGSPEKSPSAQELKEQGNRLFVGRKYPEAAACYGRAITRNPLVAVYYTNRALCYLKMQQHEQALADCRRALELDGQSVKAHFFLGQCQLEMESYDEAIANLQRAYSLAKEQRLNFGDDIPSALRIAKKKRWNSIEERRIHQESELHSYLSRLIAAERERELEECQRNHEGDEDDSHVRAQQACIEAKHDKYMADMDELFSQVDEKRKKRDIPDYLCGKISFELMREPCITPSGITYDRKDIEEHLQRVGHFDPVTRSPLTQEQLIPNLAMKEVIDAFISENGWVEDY
myc-CHIP^ΔUbox: residues 1-197 of Q9UNE7
myc-CHIP^ΔTPR: residues 142-303 of Q9UNE7
UniProt P56817, residues 46-501: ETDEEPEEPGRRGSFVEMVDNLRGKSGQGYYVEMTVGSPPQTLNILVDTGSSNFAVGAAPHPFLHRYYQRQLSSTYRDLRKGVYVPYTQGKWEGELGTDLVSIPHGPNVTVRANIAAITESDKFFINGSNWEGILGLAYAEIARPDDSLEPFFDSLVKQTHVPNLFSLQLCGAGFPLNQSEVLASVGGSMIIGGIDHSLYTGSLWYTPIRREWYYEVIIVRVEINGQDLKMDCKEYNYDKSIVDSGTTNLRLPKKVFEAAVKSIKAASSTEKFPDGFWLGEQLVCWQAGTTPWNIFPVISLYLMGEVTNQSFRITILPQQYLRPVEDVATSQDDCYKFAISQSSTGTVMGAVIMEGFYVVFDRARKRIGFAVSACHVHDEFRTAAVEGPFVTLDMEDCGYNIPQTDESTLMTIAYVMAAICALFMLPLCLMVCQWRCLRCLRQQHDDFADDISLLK

For one substance, binding results are on record in paper PMC4531073.

Among the targets are myc-CHIP wild-type (UniProt Q9UNE7); myc-CHIP^ΔTPR (UniProt Q9UNE7); myc-CHIP^ΔUbox (UniProt Q9UNE7); myc-CHIP^H260Q (UniProt Q9UNE7); myc-CHIP^K30A (UniProt Q9UNE7).
Assay in all cases: co-IP; HEK 293 cells co-transfected with Flag-BACE1 and myc-CHIP wild type or mutant (2 μg each); lysis in NP-40 buffer (50 mM Tris-HCl pH 7.4, 150 mM NaCl, 1% NP-40) at 4 °C; IP with anti-myc antibodies and protein A agarose; Western blot with anti-flag antibodies
(In western blotting, separated proteins are transferred to a membrane and probed.)

For “3XFLAG-BACE1 (β-site APP-cleaving enzyme 1) (from UniProt P56817 46-501)”, the binding entry in the assay with myc-CHIP wild-type is given as “binds”; in the assay with myc-CHIP^ΔTPR, “binds”; with myc-CHIP^ΔUbox, “no binding”; in the assay with myc-CHIP^H260Q, “binds”; in the assay with myc-CHIP^K30A, “binds”.
